Reference: the supplement of paper PMC3334620
The full ranking holds about 33,000 sequences; the median of “E-score (-0.5 to 0.5)” is about -0.036, and the highest 2% start at about 0.37. Some of the results follow.

The sequences below were run against T1, Yer064c (UniProt P40041) (assay: PBM E-score (8-mer binding enrichment) (E-score (-0.5 to 0.5)); higher = stronger / more preferred TF binding; most listed sequences are background and not binding sites). Details: protein concentration: 200 nM; construct: GST-full length.
T1 sequence: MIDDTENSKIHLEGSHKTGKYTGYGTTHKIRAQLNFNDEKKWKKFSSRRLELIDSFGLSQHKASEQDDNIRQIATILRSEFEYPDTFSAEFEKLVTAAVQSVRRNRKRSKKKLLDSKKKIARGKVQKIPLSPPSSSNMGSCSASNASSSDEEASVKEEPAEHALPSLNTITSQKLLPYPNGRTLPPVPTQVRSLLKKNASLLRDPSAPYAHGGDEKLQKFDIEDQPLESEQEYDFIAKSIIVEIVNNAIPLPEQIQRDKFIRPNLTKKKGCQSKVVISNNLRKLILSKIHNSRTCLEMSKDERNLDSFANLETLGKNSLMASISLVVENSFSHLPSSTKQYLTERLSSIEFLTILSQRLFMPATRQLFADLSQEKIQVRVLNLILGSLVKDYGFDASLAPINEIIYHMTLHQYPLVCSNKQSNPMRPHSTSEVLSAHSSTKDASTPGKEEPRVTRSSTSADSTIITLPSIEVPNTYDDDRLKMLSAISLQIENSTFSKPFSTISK
In short: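 Masliner-normalised scans of fluorescent anti-GST signal were the basis for scoring. That signal came from GST-tagged yeast transcription factors applied at about 100-200 nM to double-stranded universal all-10-mer Agilent arrays on fresh or once-stripped slides. Each ungapped eight-base word, pooled with its reverse complement, received an E-score from the Universal PBM Analysis Suite.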

Point of comparison: GGTTCATA, “PBM E-score” value -0.0107. Against it:
- CAATTGTA — lower, -0.187
- ATCAGATC — lower, -0.0452
- ACAACCCC — lower, -0.282
- GATGGTAC — lower, -0.161
- CCTTAGCC — lower, -0.021
- TCTAAAGA — higher, 0.0774
- ACGGGCAC — lower, -0.243
- ACTCCGGA — higher, 0.22
- AACGGATA — lower, -0.189
- CCAGTCAA — higher, 0.15
- AACCTTAT — lower, -0.276
- AATAGATC — lower, -0.0463
- CGCGAGGC — lower, -0.0971
- AATAATGA — higher, 0.195
- GAAAATGA — higher, 0.206
- ATGCGAAT — higher, 0.0322
- AGACCAAG — higher, 0.022
- ACCGGTAC — lower, -0.12
- GAATGCAA — lower, -0.194
- CGATAAGC — lower, -0.182
- TGGAGGAA — lower, -0.127
- AGATAGGG — lower, -0.011
- CGATTCTA — higher, 0.0229
- CTGCCAAA — lower, -0.0242
- CTACCGCC — lower, -0.259
- AGTCCACT — higher, 0.216
- AAGAAGGT — lower, -0.0694
- AAAAGTCC — lower, -0.0242
- AGAAGGCC — lower, -0.254
- AAGAACGG — lower, -0.199
- AAGTCATC — higher, 0.471
- ATTGCAAG — higher, 0.0515
- AGGCAGAA — higher, -0.00358
- CCCGAAAG — lower, -0.136
- CATGTGGC — higher, 0.151
- AAGGCTAT — lower, -0.0536
- AGATCACA — lower, -0.0293
- CCACTTAC — lower, -0.02
- CTAGCCGC — lower, -0.119
- AGAGATCC — lower, -0.34
- GGCGCGCC — lower, -0.0872
- ACTACAAT — higher, 0.226
- GGAAGTTA — higher, 0.0315
- ATTTCCCA — higher, 0.00335
- ATAACACG — lower, -0.159
- AGGCATCC — lower, -0.114
- CCCCCCGG — lower, -0.258
- AATCAAAC — higher, 0.236
- CCCTGTGA — higher, 0.133
- CGAACAGC — lower, -0.134
- CCTGTTAC — lower, -0.158
- CTGTGAAG — lower, -0.0231
- GTTGCTAA — lower, -0.138
- CGATCTAC — lower, -0.141
- CTATATAC — higher, 0.0403
- CCAACAGG — lower, -0.346
- ACCTGATA — lower, -0.0984
- CCCGTTCA — lower, -0.213
- AAAGGGGG — lower, -0.377
- TTGACAAA — higher, 0.028
- GTGGCTAA — higher, 0.26
- GGTACTAA — lower, -0.0535
- ACAATCGT — higher, -0.00128
- ACGATCCC — lower, -0.157
- CCAAGCGG — lower, -0.109
- AGAGCAAG — higher, 0.00177
- ACACGAGT — higher, 0.193
- CGTCCATA — lower, -0.0406
- GCGGTATA — lower, -0.0917
- GGCCACCA — lower, -0.109
- CGGAATTA — lower, -0.0336
- CTTATCAC — higher, -0.00234
- GGATGCGA — lower, -0.117
- ATTCCATC — higher, 0.0991
- ACCCTATA — lower, -0.137
- AGGAAACT — lower, -0.178
- AAAGATAA — higher, 0.0173
- CGGGCGGA — lower, -0.203
- GGCCTTAC — lower, -0.206
- CAGGACCG — lower, -0.153
- AAATGATC — higher, 0.121
- CGGGCTCC — lower, -0.307
- CTACAGGA — higher, 0.0425
- ATGCTTCG — lower, -0.0134
- CGTGTGTC — lower, -0.0746
- GCCAATTA — higher, 0.0589
- ACGTTTAG — higher, -0.00153
- ACAGGATC — lower, -0.161
- CTCACGTC — higher, 0.0109
- GAAACGAA — higher, 0.0935
- AAAATATG — higher, 0.0603
- CGGGACTA — higher, 0.168
- CCACATGA — higher, 0.169
- GAAGTGAC — higher, 0.197
- CCCAATTA — lower, -0.0776
- CGAAGGGC — lower, -0.337
- CGACCTCG — higher, 0.0278
- ACAATAAT — higher, 0.127
- TCACGAGA — higher, 0.199
- ACTGAAGC — higher, 0.132
- CACTCCTG — lower, -0.0809
- GCACCAGA — lower, -0.283
- CCGCTTTC — lower, -0.0764
- AGCCGCAA — lower, -0.187
- GGGCTTCA — lower, -0.168
- ATAGTCAG — higher, 0.454
- CAAACGCG — lower, -0.0471
- ATTACCTC — lower, -0.0785
- AACGCGAC — higher, 0.0371
- AATTAACG — lower, -0.0364
- GCGTTAGA — lower, -0.206
- ATGCAAAG — lower, -0.0619
- AATGCACT — lower, -0.0332
- TGCCGACA — lower, -0.111
- CCATTGTA — higher, 0.005
- TACAAGCA — lower, -0.0715
- CCCGAAAC — lower, -0.168
- ACGTATAT — lower, -0.162
- ATCTGGTC — higher, 0.00852
- GACAAACA — higher, 0.0666
- TGATGCAA — lower, -0.0847
- ACCCGGAA — lower, -0.161
- CAAAATTC — higher, 0.0523
- CTGAAGGC — lower, -0.102
- GTCTAGAA — higher, 0.0656
- TATTTAGA — higher, 0.202
- CATCCCCG — lower, -0.189
- ATGATAGC — lower, -0.167
- AAGAATTA — higher, 0.0637
- AAAGCCCA — lower, -0.13
- GAAAGTCA — higher, 0.428
- GCTTACGA — lower, -0.101
- ATTCTAAC — higher, 0.0847
- GTAATAGA — lower, -0.0133
- CGTCTCAA — lower, -0.03
- AAAGAAAA — higher, 0.155
- CCCCTTAC — lower, -0.134
- AGTATACG — higher, 0.0693
- AATTTACA — higher, 0.0293
- ATAACATC — lower, -0.0522
- CAATAGCA — lower, -0.226
- ACTACGCC — higher, 0.06
- ATGGTATA — lower, -0.0727
- GGAAAGAA — lower, -0.261
- TGGCGCCA — lower, -0.339
- ACTGGGTC — lower, -0.135
- CCTGGGAC — lower, -0.363
- TGCGCCAA — lower, -0.237
- CGGGGTCA — lower, -0.114
- AACCTCTG — lower, -0.231
- AACAAGTA — lower, -0.174
- CCCTCCCA — lower, -0.298
- CTTTCTTA — higher, 0.00049
- AAGATCCA — lower, -0.183
- GTTCAATA — higher, 0.131
- CTTCCGGA — higher, 0.0611
- GCGTAATA — higher, 0.122
- GACTCGGC — higher, 0.352
- AGTACGCG — higher, 0.123
- TATCCCCA — lower, -0.25
- GAATAGTC — higher, 0.38
- CAAAAGTC — higher, 0.186
- ATAGCTCC — lower, -0.0199
- CACTCCAA — lower, -0.0694
- ATGGGAAA — lower, -0.139
- ACCATAGT — higher, 0.249
- GTGTCTTA — higher, 0.0795
- GCTATACA — lower, -0.0322
- GTAAACAA — higher, 0.149
- CGCCATCC — lower, -0.236
- AGTTTCAA — higher, 0.104
